{"sequences": {"note": "Chains of the proteins cited; added tags and fusions are not shown. Lines headed by an entry give the natural chain unless they say otherwise; changes in a name come on top. A line that says so, or that is headed by a name, gives the form on record, which may keep a tag or linker. Residues count along the entry.", "UniProt Q9ERH3": "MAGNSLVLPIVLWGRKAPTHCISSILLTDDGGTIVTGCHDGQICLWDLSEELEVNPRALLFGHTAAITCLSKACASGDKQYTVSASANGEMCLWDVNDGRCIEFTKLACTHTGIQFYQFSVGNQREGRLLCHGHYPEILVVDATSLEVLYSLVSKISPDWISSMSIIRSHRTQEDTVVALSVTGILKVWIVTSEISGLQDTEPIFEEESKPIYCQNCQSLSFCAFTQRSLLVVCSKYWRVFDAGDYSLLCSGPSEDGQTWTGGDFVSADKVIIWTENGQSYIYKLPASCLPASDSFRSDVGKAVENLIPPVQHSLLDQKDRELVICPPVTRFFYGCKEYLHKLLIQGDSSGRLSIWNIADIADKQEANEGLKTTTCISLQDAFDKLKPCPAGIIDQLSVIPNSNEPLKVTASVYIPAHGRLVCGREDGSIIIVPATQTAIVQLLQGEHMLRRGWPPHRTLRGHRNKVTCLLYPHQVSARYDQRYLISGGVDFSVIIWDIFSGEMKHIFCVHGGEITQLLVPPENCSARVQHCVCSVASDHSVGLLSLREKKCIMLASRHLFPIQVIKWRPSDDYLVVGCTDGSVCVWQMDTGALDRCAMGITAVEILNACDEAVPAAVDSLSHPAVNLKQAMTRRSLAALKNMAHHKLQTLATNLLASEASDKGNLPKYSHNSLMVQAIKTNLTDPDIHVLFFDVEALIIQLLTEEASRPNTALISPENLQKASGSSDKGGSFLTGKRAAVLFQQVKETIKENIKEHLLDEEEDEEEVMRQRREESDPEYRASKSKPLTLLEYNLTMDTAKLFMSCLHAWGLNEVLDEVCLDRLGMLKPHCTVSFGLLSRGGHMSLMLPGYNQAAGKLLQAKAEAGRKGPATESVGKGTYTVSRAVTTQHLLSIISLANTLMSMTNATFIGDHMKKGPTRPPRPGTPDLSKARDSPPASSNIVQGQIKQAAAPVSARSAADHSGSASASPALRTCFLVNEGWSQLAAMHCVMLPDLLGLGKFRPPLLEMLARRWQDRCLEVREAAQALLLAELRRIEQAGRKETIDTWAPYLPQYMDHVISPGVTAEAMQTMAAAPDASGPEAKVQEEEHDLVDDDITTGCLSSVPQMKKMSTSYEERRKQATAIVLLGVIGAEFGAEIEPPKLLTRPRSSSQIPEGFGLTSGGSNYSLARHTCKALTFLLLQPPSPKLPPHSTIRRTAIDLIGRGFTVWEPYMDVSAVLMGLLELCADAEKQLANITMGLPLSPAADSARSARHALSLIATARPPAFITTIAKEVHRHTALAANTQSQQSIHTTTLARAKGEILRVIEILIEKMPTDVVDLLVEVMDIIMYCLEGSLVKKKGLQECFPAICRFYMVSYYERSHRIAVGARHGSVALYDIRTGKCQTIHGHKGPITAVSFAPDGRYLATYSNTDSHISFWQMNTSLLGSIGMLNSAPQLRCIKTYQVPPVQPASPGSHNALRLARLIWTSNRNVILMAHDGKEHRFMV", "UniProt Q9Y4E6": "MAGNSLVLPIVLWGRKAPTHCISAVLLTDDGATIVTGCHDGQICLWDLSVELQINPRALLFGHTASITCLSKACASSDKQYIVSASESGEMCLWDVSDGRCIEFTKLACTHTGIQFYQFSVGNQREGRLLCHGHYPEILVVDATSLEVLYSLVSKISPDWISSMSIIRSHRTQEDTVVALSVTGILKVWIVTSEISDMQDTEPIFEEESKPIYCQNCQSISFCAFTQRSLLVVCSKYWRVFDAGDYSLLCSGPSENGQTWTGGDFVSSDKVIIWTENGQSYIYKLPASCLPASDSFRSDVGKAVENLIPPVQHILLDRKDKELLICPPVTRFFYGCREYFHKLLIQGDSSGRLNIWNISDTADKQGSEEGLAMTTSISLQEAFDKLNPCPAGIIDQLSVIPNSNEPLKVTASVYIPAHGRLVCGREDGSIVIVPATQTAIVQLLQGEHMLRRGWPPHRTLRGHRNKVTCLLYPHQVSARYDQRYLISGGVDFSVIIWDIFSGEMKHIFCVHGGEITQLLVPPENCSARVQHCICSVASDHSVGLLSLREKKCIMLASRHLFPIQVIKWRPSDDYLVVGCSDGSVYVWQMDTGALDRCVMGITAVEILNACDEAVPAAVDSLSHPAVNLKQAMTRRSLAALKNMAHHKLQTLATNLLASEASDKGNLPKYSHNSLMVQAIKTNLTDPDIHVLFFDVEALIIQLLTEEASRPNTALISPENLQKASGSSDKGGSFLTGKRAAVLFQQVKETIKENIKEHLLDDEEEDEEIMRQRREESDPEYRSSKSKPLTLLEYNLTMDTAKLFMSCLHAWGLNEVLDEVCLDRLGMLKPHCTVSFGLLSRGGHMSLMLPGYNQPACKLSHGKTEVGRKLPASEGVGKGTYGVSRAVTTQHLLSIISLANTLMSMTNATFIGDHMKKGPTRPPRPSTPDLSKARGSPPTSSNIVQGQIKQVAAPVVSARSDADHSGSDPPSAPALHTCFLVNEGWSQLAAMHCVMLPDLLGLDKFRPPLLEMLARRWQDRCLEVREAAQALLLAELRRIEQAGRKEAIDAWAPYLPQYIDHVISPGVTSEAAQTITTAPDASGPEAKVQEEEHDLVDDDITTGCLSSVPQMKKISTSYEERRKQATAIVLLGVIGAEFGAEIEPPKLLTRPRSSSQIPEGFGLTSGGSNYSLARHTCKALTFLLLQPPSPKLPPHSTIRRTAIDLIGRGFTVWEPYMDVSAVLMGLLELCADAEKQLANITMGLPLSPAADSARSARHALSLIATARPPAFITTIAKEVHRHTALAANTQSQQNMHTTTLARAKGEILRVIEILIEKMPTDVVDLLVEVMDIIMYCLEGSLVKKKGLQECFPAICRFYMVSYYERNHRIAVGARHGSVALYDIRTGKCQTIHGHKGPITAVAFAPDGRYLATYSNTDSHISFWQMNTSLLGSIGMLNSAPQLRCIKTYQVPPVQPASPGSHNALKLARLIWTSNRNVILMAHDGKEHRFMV", "UniProt Q62717": "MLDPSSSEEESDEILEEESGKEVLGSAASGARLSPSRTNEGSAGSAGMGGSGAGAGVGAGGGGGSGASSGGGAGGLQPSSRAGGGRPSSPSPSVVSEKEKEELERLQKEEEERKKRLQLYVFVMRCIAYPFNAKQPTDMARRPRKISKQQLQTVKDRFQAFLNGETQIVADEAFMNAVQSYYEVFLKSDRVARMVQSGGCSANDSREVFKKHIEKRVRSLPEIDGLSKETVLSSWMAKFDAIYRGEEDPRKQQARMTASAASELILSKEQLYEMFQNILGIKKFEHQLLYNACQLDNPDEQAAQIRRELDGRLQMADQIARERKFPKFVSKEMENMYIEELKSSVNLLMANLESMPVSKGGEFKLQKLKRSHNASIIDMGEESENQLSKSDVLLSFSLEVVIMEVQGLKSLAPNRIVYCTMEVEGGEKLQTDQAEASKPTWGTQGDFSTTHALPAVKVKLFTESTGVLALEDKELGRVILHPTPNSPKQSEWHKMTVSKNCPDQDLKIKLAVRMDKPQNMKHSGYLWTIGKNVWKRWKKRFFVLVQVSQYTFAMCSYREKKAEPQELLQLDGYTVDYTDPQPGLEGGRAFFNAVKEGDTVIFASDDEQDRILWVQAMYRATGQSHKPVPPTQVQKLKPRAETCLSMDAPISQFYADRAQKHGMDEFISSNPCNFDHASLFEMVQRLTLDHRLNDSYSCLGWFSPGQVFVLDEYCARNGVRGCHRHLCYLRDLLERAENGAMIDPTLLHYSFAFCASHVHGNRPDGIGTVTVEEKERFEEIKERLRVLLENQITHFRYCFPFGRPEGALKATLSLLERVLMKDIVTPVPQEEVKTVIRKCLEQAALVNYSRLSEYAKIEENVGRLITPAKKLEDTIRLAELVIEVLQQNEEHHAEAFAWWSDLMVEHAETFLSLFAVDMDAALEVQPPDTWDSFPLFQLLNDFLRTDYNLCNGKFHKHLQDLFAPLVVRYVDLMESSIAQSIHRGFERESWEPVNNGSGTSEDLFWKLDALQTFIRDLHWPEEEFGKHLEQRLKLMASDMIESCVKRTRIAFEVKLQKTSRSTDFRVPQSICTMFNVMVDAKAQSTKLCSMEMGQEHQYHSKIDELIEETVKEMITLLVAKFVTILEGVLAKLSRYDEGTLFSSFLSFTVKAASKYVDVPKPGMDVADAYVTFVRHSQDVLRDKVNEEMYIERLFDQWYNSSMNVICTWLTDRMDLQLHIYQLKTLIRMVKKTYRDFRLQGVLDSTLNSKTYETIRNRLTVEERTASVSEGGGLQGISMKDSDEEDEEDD", "CAPS(1–640)-HA": "residues 1-640 of Q62717", "CAPS(1–378)-HA": "residues 1-378 of Q62717", "CAPS(859–1289)-HA": "residues 859-1289 of Q62717", "UniProt P25286": "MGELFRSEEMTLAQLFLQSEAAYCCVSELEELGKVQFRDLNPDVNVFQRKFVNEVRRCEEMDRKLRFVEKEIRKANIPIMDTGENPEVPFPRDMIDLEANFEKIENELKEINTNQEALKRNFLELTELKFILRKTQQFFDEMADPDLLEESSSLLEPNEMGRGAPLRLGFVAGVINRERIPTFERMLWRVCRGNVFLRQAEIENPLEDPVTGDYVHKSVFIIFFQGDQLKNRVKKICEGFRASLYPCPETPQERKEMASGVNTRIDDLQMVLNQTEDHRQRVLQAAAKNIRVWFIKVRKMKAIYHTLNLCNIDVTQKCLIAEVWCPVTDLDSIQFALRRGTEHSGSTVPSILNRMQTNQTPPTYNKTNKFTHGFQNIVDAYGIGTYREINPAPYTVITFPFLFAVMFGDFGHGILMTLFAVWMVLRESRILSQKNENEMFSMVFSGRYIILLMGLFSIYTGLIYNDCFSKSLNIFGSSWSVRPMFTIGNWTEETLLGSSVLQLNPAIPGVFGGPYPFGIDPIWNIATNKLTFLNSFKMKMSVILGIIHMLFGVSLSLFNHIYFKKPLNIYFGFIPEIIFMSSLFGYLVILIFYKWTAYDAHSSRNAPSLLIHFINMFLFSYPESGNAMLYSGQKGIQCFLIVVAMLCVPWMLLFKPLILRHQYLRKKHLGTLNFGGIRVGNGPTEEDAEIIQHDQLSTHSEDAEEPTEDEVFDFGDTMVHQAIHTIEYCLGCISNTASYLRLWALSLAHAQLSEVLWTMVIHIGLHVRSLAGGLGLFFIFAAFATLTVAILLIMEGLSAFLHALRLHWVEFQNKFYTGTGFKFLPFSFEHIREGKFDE", "V-ATPase V1 domain subunit A (printed V1A1) (D4A133, form named)": "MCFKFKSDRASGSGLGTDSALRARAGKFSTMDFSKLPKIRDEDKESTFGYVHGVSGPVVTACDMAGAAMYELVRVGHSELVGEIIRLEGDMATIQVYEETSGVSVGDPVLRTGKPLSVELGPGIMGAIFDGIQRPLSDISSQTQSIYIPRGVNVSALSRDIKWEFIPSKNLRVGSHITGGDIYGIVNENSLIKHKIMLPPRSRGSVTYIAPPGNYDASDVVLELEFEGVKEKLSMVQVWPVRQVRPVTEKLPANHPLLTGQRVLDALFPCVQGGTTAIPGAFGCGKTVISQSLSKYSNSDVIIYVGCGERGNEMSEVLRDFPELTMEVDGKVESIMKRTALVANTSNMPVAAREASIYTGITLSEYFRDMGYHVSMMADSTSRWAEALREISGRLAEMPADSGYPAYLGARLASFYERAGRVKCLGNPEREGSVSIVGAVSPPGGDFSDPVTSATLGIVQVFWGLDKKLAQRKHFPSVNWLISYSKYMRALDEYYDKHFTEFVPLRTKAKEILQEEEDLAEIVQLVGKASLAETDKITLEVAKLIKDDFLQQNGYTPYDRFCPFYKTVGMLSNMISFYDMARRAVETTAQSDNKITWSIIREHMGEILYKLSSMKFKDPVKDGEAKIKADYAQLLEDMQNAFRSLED"}, "source": "paper PMC6579465", "key": {"[1]": {"target": "Rabconnectin3β (Rbcn3β) / WD repeat domain 7 (WDR7) (rat (endogenous in rat brain)) (UniProt Q9ERH3)", "experiment": "co-IP; immunoprecipitation with Rbcn3α or Rbcn3β antibody, control IgGs; Western blot; starting material not told for this experiment"}, "[2]": {"target": "Rbcn3β-GFP (UniProt Q9Y4E6)", "experiment": "pull-down; Rbcn3β-GFP (or GFP) immobilised on GFP nanobody beads (GFP-Trap MA); purified CAPS1-TwinStrep added in 25 mM Tris·HCl pH 7.4, 75 mM NaCl, 0.5% NP-40, 0.5 mM EDTA, 2.5% glycerol, 1 h; Western blot; both purified"}, "[3]": {"target": "CAPS1 (calcium-dependent activator protein for secretion, CADPS) (rat (endogenous in rat brain)) (UniProt Q62717)", "experiment": "co-IP; CAPS1 antibody or control IgG immunoprecipitates of detergent-solubilized rat brain membranes; eluates analysed by Western blotting"}, "[4]": {"target": "CAPS(1–1289)-HA, full-length (UniProt Q62717)", "experiment": "co-IP; HA-tagged CAPS1 fragments coexpressed with Rbcn3β-GFP in HEK293FT cells; lysis in 25 mM Tris pH 7.4, 150 mM NaCl, 1% NP-40, 1 mM EDTA, 5% glycerol; anti-HA magnetic beads 1 h on ice; Western blot; control pCMV-HA"}, "[5]": {"target": "CAPS(1–378)-HA (UniProt Q62717)", "experiment": "co-IP; HA-tagged CAPS1 fragments coexpressed with Rbcn3β-GFP in HEK293FT cells; lysis in 25 mM Tris pH 7.4, 150 mM NaCl, 1% NP-40, 1 mM EDTA, 5% glycerol; anti-HA magnetic beads 1 h on ice; Western blot; control pCMV-HA"}, "[6]": {"target": "CAPS(859–1289)-HA (UniProt Q62717)", "experiment": "co-IP; HA-tagged CAPS1 fragments coexpressed with Rbcn3β-GFP in HEK293FT cells; lysis in 25 mM Tris pH 7.4, 150 mM NaCl, 1% NP-40, 1 mM EDTA, 5% glycerol; anti-HA magnetic beads 1 h on ice; Western blot; control pCMV-HA"}, "[7]": {"target": "CAPS(1–640)-HA (UniProt Q62717)", "experiment": "co-IP; HA-tagged CAPS1 fragments coexpressed with Rbcn3β-GFP in HEK293FT cells; lysis in 25 mM Tris pH 7.4, 150 mM NaCl, 1% NP-40, 1 mM EDTA, 5% glycerol; anti-HA magnetic beads 1 h on ice; Western blot; control pCMV-HA"}}, "note": "No constants are given. Whether binding was seen depends on the method and setting. For part of these data: Binding seen in cells or lysates may run through a third protein. Some entries that bind do so weakly or less than the wild type."}
{"substance": "CAPS1 (calcium-dependent activator protein for secretion, CADPS) (from UniProt Q62717 1-1289)", "values": [{"measurement": "binding", "setting": "[1]", "value": "binds"}]}
{"substance": "CAPS1-TwinStrep (from UniProt Q62717 1-1289)", "values": [{"measurement": "binding", "setting": "[2]", "value": "binds"}]}
{"substance": "Rabconnectin3β (Rbcn3β) / WD repeat domain 7 (WDR7) (from UniProt Q9ERH3 1-1488)", "values": [{"measurement": "binding", "setting": "[3]", "value": "binds"}]}
{"substance": "Rbcn3β-GFP (from UniProt Q9Y4E6 1-1490)", "values": [{"measurement": "binding", "setting": "[4]", "value": "binds"}, {"measurement": "binding", "setting": "[5]", "value": "binds"}, {"measurement": "binding", "setting": "[6]", "value": "no binding"}, {"measurement": "binding", "setting": "[7]", "value": "binds"}]}
{"substance": "V-ATPase V0 domain subunit a1 (V0a1) (from UniProt P25286 1-838)", "values": [{"measurement": "binding", "setting": "[3]", "value": "binds"}]}
{"substance": "V-ATPase V1 domain subunit A (printed V1A1) (from UniProt D4A133 1-647)", "values": [{"measurement": "binding", "setting": "[3]", "value": "binds"}]}
